Experimental data taken from a compilation of properties of binary mixtures (doi:10.1016/j.molliq.2017.12.017).
Some of these densities may be calculated back from excess volumes.

Test: xn = mol fraction of the nth substance listed
Conditions: 101 kPa

COCCO + CC[n+]1ccn(C)c1.O=S(=O)([O-])C(F)(F)F
x2 = 0
Conditions | mass density [kg/m3]
298.15 K | 960.5
308.15 K | 951.3
313.15 K | 946.6
318.15 K | 941.9

CC[n+]1ccn(C)c1.O=S(=O)([O-])C(F)(F)F + COCCO
mass density [kg/m3]
Conditions | 298.15 K | 303.15 K | 308.15 K | 313.15 K | 318.15 K
x1 = 0.0531 | 1008.9 | – | 999.9 | 995.3 | 990.8
x1 = 0.1062 | 1050.2 | 1045.7 | 1041.2 | – | 1032.2
x1 = 0.1999 | – | 1106 | 1101.6 | 1097.2 | –
x1 = 0.2935 | 1164.2 | 1159.9 | – | 1151.2 | 1146.9
x1 = 0.3958 | 1215.9 | 1211.6 | 1207.4 | 1203.1 | –
x1 = 0.4452 | – | 1234 | 1229.7 | 1225.5 | 1221.2
x1 = 0.5036 | 1262.3 | 1258.1 | 1253.8 | 1249.6 | 1245.4
x1 = 0.5752 | 1288.4 | 1284.2 | 1280 | 1275.8 | –
x1 = 0.6452 | – | 1306.3 | 1302.1 | 1297.9 | 1293.7
x1 = 0.7142 | 1328.7 | 1324.5 | 1320.4 | 1316.2 | 1312
x1 = 0.8049 | – | 1343.4 | 1339.2 | – | 1330.9
x1 = 0.8751 | 1361.1 | 1356.9 | 1352.7 | 1348.5 | 1344.4
x1 = 0.9522 | – | 1370.2 | 1366.1 | 1361.8 | –
x1 = 1 | 1382.8 | – | 1374.4 | 1370.2 | 1366.1
